Experimental data published in article PMC6919601, “Identification of Plasmodium dipeptidyl aminopeptidase allosteric inhibitors by high throughput screening” (PLoS ONE, 2019).
About 230 (0.21%) of roughly 110,000 compounds showed an effect of 50% or more. This is one part of the list.

The compounds below were run against DPAP1 (Plasmodium falciparum, UniProt Q8IIJ9) (assay: primary screen, percent inhibition; read by cleavage of a fluorogenic dipeptide substrate; higher = more effect of the substance).
Sequence of DPAP1 (Q8IIJ9 whole entry, looked up): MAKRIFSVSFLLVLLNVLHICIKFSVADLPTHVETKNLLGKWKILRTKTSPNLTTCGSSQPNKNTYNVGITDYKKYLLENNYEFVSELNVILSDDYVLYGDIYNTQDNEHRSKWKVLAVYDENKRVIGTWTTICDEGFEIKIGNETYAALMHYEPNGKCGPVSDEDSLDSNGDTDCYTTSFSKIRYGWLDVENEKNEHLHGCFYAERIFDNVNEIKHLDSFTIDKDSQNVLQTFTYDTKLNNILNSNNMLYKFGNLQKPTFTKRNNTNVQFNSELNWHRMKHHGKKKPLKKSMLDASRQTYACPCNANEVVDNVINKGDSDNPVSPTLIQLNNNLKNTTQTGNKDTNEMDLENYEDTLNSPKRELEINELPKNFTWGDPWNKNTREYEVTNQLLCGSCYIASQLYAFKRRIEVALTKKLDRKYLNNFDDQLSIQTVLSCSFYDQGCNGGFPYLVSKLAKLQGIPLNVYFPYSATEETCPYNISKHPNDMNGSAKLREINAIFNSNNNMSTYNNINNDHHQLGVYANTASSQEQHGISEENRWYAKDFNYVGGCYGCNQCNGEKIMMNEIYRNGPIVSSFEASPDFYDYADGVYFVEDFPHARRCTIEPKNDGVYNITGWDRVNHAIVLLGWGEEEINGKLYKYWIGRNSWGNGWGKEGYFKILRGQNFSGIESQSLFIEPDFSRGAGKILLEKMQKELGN
Parameters: species or system P. falciparum D10 trophozoite lysates; single well
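Further: 30 min substrate incubation versus DMSO and 10 µM JCP410 controls.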

SMILES	% Inhibition @ 10 uM
N#Cc1c(C(F)(F)F)cc(-c2ccccc2)nc1SCC(=O)Nc1nonc1-n1cccc1	5.49%
CCO[C@H](C)[C@@H](NC(=O)OCc1ccccc1)C(=O)NCC#N	-0.116%
CC(C)(C)C1=C[C@@H](CO)C[C@@H](CO)C1	29.7%
Cc1ccc2c(c1)c1c3n2CCN(CC(O)COc2ccccc2)C3CCC1 (centres unmarked)	-4.61%
O=C(NCc1cccc(Cl)c1)c1cc2cccc3c2n1CCS3	-0.767%
Cc1c(C(=O)NCC(c2ccco2)N(C)C)oc2ccc(Cl)cc12 (centres unmarked)	9.21%
CS(=O)(=O)N(CC(=O)Nc1ccc2c(c1)OCO2)c1ccccc1F	-0.598%
O=C(Nc1cccc(Cl)c1Cl)c1cccc2ccccc12	-0.268%
O=c1c(-c2ccccc2)c(C(F)(F)F)oc2cc(O)ccc12	19.4%
CC1CCN(S(=O)(=O)c2ccc3nc(O)ccc3c2)CC1	-3.57%
CCOC(=O)N1CCN(c2cc(C)nc3nc(-c4ccccc4C)nn23)CC1	-0.946%
CC(=O)c1ccc(NC(=O)COc2cc(Cl)c(Cl)cc2Cl)cc1	4.06%
CCC(Cc1ccccc1)NS(=O)(=O)c1csc(C(N)=O)c1 (centres unmarked)	-2.26%
CCc1nn(CC(=O)O)c(=O)c2cc3c(OC)cccc3n12	6.31%
COC(F)(C(=O)Nc1cccc(Nc2ccccc2)c1)C(F)(F)F (centres unmarked)	1.88%
O=C1OC(c2ccccc2)=C/C1=C/c1ccc(Cl)cc1Cl	-2.27%
CC(C)Oc1cccc(C(=O)Nc2ccc(CN3CCOCC3)cc2)c1	-4.52%
Clc1ccc(CCNCc2c[nH]c3ccccc23)c(Cl)c1	0.177%
OCC1CCCN(Cc2c(Cl)cccc2Cl)C1 (centres unmarked)	-3.27%
CSc1nc(C)cc(-n2ccc(=O)[nH]c2=O)n1	1.84%
CCOc1ccc(S(=O)(=O)Nc2ccc(CC#N)cc2)cc1	0.214%
Cn1c(C(=O)O)c(CNCc2cccc(Cl)c2)c2ccccc21	-4.33%

SMILES	% Inhibition @ 10 uM
Cn1c(=O)c2c(-c3ccc(Cl)cc3)n(CC(=O)O)cc2n(C)c1=O	-3.12%
Cc1nn(C(C)C(=O)N2CCN(C3CCCCC3)CC2)c(=O)c2c1sc1ccccc12 (centres unmarked)	-0.856%
N=C1S/C(=C/c2ccc(-c3cccc(C(=O)O)c3)o2)C(=O)N1c1nccs1	-3.45%
CCOC(=O)c1[nH]c(C)c(C(=O)NCCCOC(C)C)c1C	-1.66%
COc1ccc(-c2nc(NC(=O)c3cccnc3)sc2C)cc1	3.15%
CCOc1ccc(NC(=O)c2ccc(Cl)cc2)cc1	-5.41%
O=C(C1CC(c2ccc(F)cc2)=NO1)N1CCCCC1 (centres unmarked)	-2.16%
CC(C)Oc1ccc(N2CC(C(=O)Nc3ccccc3C(F)(F)F)CC2=O)cc1 (centres unmarked)	-7.33%
CCc1c(C)c2ccc3c(c2oc1=O)CN(C(C)(C)C)CO3	-1.08%
N#C/C(=C/c1ccc(-c2ccc(Cl)cc2)o1)C(=O)O	0.00784%
COc1ccc(-n2c(C)c([N+](=O)[O-])c3ccc(O)cc32)cc1	-1.59%
COc1ccc(-c2c(C)nn(-c3ccccc3)c2/N=C/N2CCOCC2)cc1OC	-6.17%
Cc1cc(NC(=O)CSc2nc3ccccc3c3nc(CCn4c(C)nc5ccccc54)nn23)[nH]n1	-2.74%
Fc1cccc(Cl)c1CSc1nnc(-c2ccccc2)o1	6.11%
COc1cc2c(cc1OC)C(C#N)=NC(C)(C)C2	-2.03%
COc1ccccc1C(=O)Nc1c(C(=O)NCc2ccco2)sc2nc(C)cc(C)c12	-1.24%
Cc1nc(O)c(C(=O)/C=C/c2ccccc2Cl)c2c1CCCC2	1.83%
COc1ccc(-c2nn(C)c3sc(C(=O)NCCCOC(C)C)cc23)cc1OC	1.23%
CN1CCCN(Cc2ccc(Br)o2)CC1	-1.07%
CN(C)CCN(C)Cc1ccc(F)cc1	3.53%
COc1ccc(-c2noc(CN3CCC(Cc4ccccc4)CC3)n2)cc1	-3.68%
COc1ccc(OCC(=O)Nc2ccc(S(=O)(=O)N3CCOCC3)cc2)cc1	2.01%

SMILES	% Inhibition @ 10 uM
COC(F)(C(=O)Nc1sc2c(c1C#N)CCCC2)C(F)(F)F (centres unmarked)	3.19%
CCSc1nnc(NC(=O)C2CC3CCC2C3)s1 (centres unmarked)	-3.74%
CCOc1ccc(C2=NN(c3cccc(F)c3)C(c3ccccc3F)C2)cc1 (centres unmarked)	-0.239%
COCCn1c(C)cc(C(=O)C(=O)Nc2nnc(-c3ccco3)s2)c1C	-8.56%
Cc1nn(CCCC(=O)NC2CCC(C)CC2)c(=O)c2nn(-c3ccccc3)c(C)c12 (centres unmarked)	2.48%
CCn1c(Cn2nnc(-c3ccccc3)n2)nnc1SCC(=O)N1CCOCC1	-2.19%
CC(C)CCNC(=O)COc1ccc(Cl)cc1Cl	3.65%
O=C(COc1ccc(Br)cc1)Nc1ccc2c(c1)C(=O)NC2=O	-7.53%
O=C(c1nn2c(C(F)(F)F)cc(-c3ccccc3)nc2c1Cl)N1CCN(C(c2ccccc2)c2ccccc2)CC1	-5.28%
CCCCCCC(NC(=O)OCc1ccccc1)C(=O)NCC#N (centres unmarked)	-6.98%
Cc1cc(Cl)cc(Cl)c1OCC(=O)Nc1ccc(N2CCOCC2)cc1	-0.478%
Cc1cc(C)nc(NS(=O)(=O)c2ccc(NC(=O)c3ccccc3C)cc2)n1	-1.65%
CCN(CC)C(=O)Cn1cc(SCC(=O)Nc2cc(C)on2)c2ccccc21	-3.13%
Cc1ccc(S(=O)(=O)CCC#N)cc1C	1.43%
O=S(=O)(c1ccccc1)N1CCN(c2ccccc2)CC1	5.09%
COc1ccc(-c2cc(-c3ccccc3)nc(N)c2C#N)cc1	4.51%
CCOc1ccccc1-c1cc(C(=O)O)c2cc(Br)ccc2n1	-2.9%
COc1ccc2oc(=O)cc(CN3CCCCCC3)c2c1	4.83%
Cc1nc2cccnc2n1-c1ccc(C(=O)N2CCC(Cc3ccccc3)CC2)cc1	-1.75%
CC(C)Oc1ccccc1NC(=O)c1cc(F)c(F)cc1Cl	1.64%
CCCCN(Cc1ccccc1)C(=O)C1CCCN(S(=O)(=O)c2c[nH]cn2)C1 (centres unmarked)	1.26%
